Data taken from PubChem BioAssay AID900 (National Center for Advancing Translational Sciences (NCATS), 2007).
Screen size: about 75,000 compounds; about 20 (0.03%) were called active. Inconclusive means that the source gave no clear call. Such entries were picked first, then a sample of the others. Calls follow the shape of the dose curve; as a rule, active = well fitted inhibition curve with a large enough effect; inconclusive = small, poorly fitted or top-dose-only effect; inactive = flat fitted curve, though single readings scatter. A potency beside an inconclusive call is a rough fit, not a confirmed value.

molecular target: Caspase-1 (Homo sapiens) (UniProt P29466); test: qHTS Assay for Allosteric/Competitive Inhibitors of Caspase-1; settings: Caspase-1 enzyme, Ac-WEHD-AFC fluorogenic rate; activity change, negative = inhibition: at 57.5 µM (top of the series) unless noted;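 as to activity change, negative = inhibition: plate controls were vehicle for no effect and no substrate for full effect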
Potency is read from the fitted curve at half-maximal effect; tags tell the direction and shape of the fitted curve or compound fluorescence and quenching.

Compound	Potency	activity change, negative = inhibition
CCNc1ncc2ncc(=O)n(CCOC)c2n1	inconclusive: 15.8 µM [fluorescent]	–
COC(=O)c1cnn2c(C(F)(F)F)cc(-c3ccc(F)cc3)nc12	inconclusive: 39.8 µM [inhibitor, single point]	–
O=C(Cn1nnc2ccccc21)C1CC1	inactive	–
Cc1cccc(C2Nc3ccccc3C(=O)N2c2ccccc2)n1 (stereo not given)	inconclusive: 31.6 µM [inhibitor, partial curve]	–
C=C(C)C(O)/C=C/c1cccc(OC)c1 (stereo not given)	–	inactive: -1.77% [at 11.5 µM]
O=C(NCCCN1CCN(c2ccccc2F)CC1)C1CCN(S(=O)(=O)N2CCOCC2)CC1	–	inconclusive: -17.7% [inhibitor]
Cn1cc(-c2nc3cnc(N4CCNCC4)nc3n(-c3ccccc3)c2=O)c2ccccc21	inconclusive: 20 µM [inhibitor, partial curve]	–
Cc1sc2nc3c4ccccc4c(NCc4ccco4)nn3c(=O)c2c1C	inconclusive: 10 µM [inhibitor, partial curve]	–
CN1CCN(c2ncc3nc(-c4ccc(Cl)cc4)c(=O)n(-c4ccccc4)c3n2)CC1	inconclusive: 10 µM [fluorescent]	–
Cc1nc2cnc(N3CCNCC3)nc2n(C2CC2)c1=O	inconclusive: 15.8 µM [fluorescent]	–
CCOC(=O)C1=C(N)n2c(s/c(=C/c3ccco3)c2=O)=C(C(=O)OC)C1c1ccco1 (stereo not given)	–	inconclusive: -15.2% [inhibitor]
CC(C)CC(C(=O)Nc1oc(-c2ccco2)c(-c2ccco2)c1C#N)N1C(=O)c2ccccc2C1=O (stereo not given)	inconclusive: 31.6 µM [inhibitor, partial curve]	–
COCCOC(=O)c1[nH]c2c(c1C)C(=O)C(C(=O)OC)C(C)C2 (stereo not given)	inactive	–
Cc1cc(O)c(C=O)c2c1C(=O)Oc1c(C)c(O)c3c(c1O2)C(O)OC3=O (stereo not given)	inconclusive: 6.31 µM [inhibitor, partial curve]	–
c1coc(C2Nc3ccccc3-c3nc4ccccc4n32)c1 (stereo not given)	inconclusive: 15.8 µM [inhibitor, partial curve]	–
c1ccc(N2CCN(c3nc4cc5c(cc4s3)OCO5)CC2)cc1	inactive	–
COc1ccc(C(=O)N2CCN=C2SCc2cccnc2)cc1OC	inactive	–
CC(C)C1Nc2ccc(S(N)(=O)=O)cc2C2C=CCC21 (stereo not given)	inconclusive: 25.1 µM [inhibitor, single point]	–
COc1ccc2cc(CN(Cc3ccco3)C(c3nnnn3C3CCCCC3)C(C)C)c(=O)[nH]c2c1 (stereo not given)	inactive	–
CC(C)Cn1c(CN(Cc2ccccc2)Cc2ccccc2)nc2c1c(=O)n(C)c(=O)n2C	inconclusive: 39.8 µM [inhibitor, single point]	–
COCCn1c(=O)c(-c2cccc(C#N)c2)nc2cnc(OCc3ccccc3)nc21	inconclusive: 39.8 µM [inhibitor, single point]	–
COc1ccccc1-n1cc(C(=O)NCC(=O)N2CCN(c3ccccc3)CC2)c2ccccc2c1=O	inactive	–
CC[C@@H](c1ccccc1)n1c(=O)n2n(c1=O)[C@H]1[C@H](O)[C@H]3O[C@@H]3/C(=N/OC[C@@H](O)COCc3ccco3)[C@@H]1CC2	–	inactive: -4.14% [at 11.5 µM]
CCCCC(=O)N1CCCC(c2nc3c(nnn3Cc3cc(C)ccc3C)c(=O)[nH]2)C1 (stereo not given)	–	inconclusive: -15.2% [inhibitor]

Compound	Potency	activity change, negative = inhibition
Cc1cc(N2CCc3ccccc32)n2ncnc2n1	–	inconclusive: -17% [inhibitor]
C#CCn1cnc2c(cnn2-c2ccc(C)c(C)c2)c1=O	inactive	–
O=S(=O)(Nc1ccc2c(c1)nc1n2CCN(Cc2ccccc2)C1)c1ccc(F)cc1	–	inconclusive: -16.6% [inhibitor]
C/C(CCN1CCCCc2nc(C)c(C)cc21)=N\OC[C@@H](O)COCc1ccco1	–	inactive: -3.31% [at 11.5 µM]
Fc1ccc(-n2c(-c3ccco3)nc3nc4ccccc4nc32)cc1	inconclusive: 15.8 µM [inhibitor, partial curve]	–
N/N=C1/CC(=O)NC(=O)N1	–	inconclusive: -20% [inhibitor] [at 11.5 µM]
CC(=O)C1=C(C)NC(SCSc2ccccc2)=C(C#N)C1c1cccnc1 (stereo not given)	inconclusive: 39.8 µM [inhibitor, partial curve]	–
Cc1c(C(=O)O)oc2ccc(S(=O)(=O)N3CCCCC3C(=O)O)cc12 (stereo not given)	–	inconclusive: -18.3% [inhibitor]
CCOc1ccc(N=CC2=C(O)CC(C)(C)CC2=O)cc1	inconclusive: 39.8 µM [inhibitor, single point]	–
O=C(c1ccc(N2CCCCS2(=O)=O)cc1)N1CCN(c2ccc(N3CCOCC3)nn2)CC1	inconclusive: 31.6 µM [inhibitor, partial curve]	–
COc1ccc(C2CC(=O)N3CN(c4ccc(C)c(Cl)c4)CSC3=C2C#N)cc1OC (stereo not given)	active: 31.6 µM	–
O=C(c1ccc(Cl)cc1)N1CCCCC(Sc2nnc(-c3ccc4c(c3)OCO4)o2)C1=O (stereo not given)	inactive	–
CC(=O)[C@@H]1[C@H]2[C@H](C(=O)[C@H]3OC[C@@H]2O3)[C@H]2C=Cc3ccccc3N21	inconclusive: 31.6 µM [inhibitor, partial curve]	–
CS(=O)(=O)N(CCc1ccccc1)CC(=O)N1CCc2ccccc2C1	inconclusive: 15.8 µM [inhibitor, partial curve]	–
COC(=O)c1ccc(-n2nnnc2SCc2ccccc2OC)cc1	inactive	–
O=C(O)CCc1ccc(-c2ccccc2)n1CC1CCCO1 (stereo not given)	inconclusive: 25.1 µM [inhibitor, partial curve]	–
COc1ccccc1NC(=O)CSc1nnc(Cn2cnc3ccccc32)n1C	inactive	–
CCN(CC)c1ccc2c(C)cc(=O)oc2c1	inconclusive: 12.6 µM [fluorescent, partial curve]	–
O=C(NC1CCN(Cc2ccccc2)CC1)C1CCCN(S(=O)(=O)c2cccc3nonc23)C1 (stereo not given)	inactive	–
COc1cccc(C2CC(C(F)(F)F)n3nc(C(=O)NCc4cccnc4)cc3N2)c1 (stereo not given)	inactive	–
Cc1ccc2cc3cc(C(=O)N4CC(C)CC(C)C4)oc3nc2c1 (stereo not given)	inactive	–
CCOC(=O)/C(C#N)=C1/C=C(C)NC(c2ccccc2O)=N1	–	inconclusive: -18% [inhibitor]
FC(F)(F)c1ccccc1-c1nc(NCc2cccnc2)c2ccccc2n1	inconclusive: 25.1 µM [inhibitor, partial curve]	–
Cc1cc(C)n(-c2nc3ccccc3nc2Nc2ccc3c(c2)OCO3)n1	inconclusive: 15.8 µM [inhibitor, partial curve]	–

Compound	Potency	activity change, negative = inhibition
COCc1ccccc1Cn1cnc2c1c(=O)n(C)c(=O)n2C	inconclusive: 25.1 µM [inhibitor, partial curve]	–
Cc1cc(N)c2cc(OCCOc3ccc4nc(C)cc(N)c4c3)ccc2n1	inconclusive: 3.98 µM [inhibitor, partial curve]	–
COc1ccc2c3c(cccc13)NN=C2C	inconclusive: 31.6 µM [inhibitor, partial curve]	–
CCN1CC=C2C(C#N)=C(N)C(C#N)(C#N)C(CCc3ccccc3)C2C1 (stereo not given)	inconclusive: 20 µM [fluorescent, partial curve]	–
Cc1cc(NCc2ccccc2)nc(-c2ccccc2O)n1	inconclusive: 31.6 µM [inhibitor, partial curve]	–
O=c1cnc2cnc(N3CCOCC3)nc2n1Cc1ccc(F)cc1	inconclusive: 25.1 µM [inhibitor, partial curve]	–
Cc1cccc2cc(CN(CC3CCCO3)C(c3nnnn3Cc3ccco3)C(C)C)c(=O)[nH]c12 (stereo not given)	inconclusive: 25.1 µM [inhibitor, partial curve]	–
N#Cc1c(N)nc(SCC(=O)OCc2ccccc2)c(C#N)c1-c1ccco1	inconclusive: 31.6 µM [inhibitor, partial curve]	–
Cc1ccc(S(=O)(=O)NC(CC(=O)O)c2ccccc2)cc1 (stereo not given)	inactive	–
c1cc(N2CCCC2)ccc1C(c1nnnn1C1CCCCC1)N1CCOCC1 (stereo not given)	inconclusive: 31.6 µM [inhibitor, single point]	–
COc1ccc(C(=O)Nc2ccc3c(c2)nc2n3CCSC2)cc1	–	inconclusive: -19.3% [inhibitor]
CCCCSc1nnc(-c2cc(Br)ccc2N)c(=O)[nH]1	inactive	–
O=C1C(=O)N(CCN2CCOCC2)C(c2ccccn2)/C1=C(/O)c1ccc(Cl)cc1 (stereo not given)	inconclusive: 25.1 µM [inhibitor, single point]	–
COC(=O)C1=C(C)NC2=C(C(=O)CC(c3cccs3)C2)C1c1ccsc1 (stereo not given)	inconclusive: 31.6 µM [inhibitor, partial curve]	–
Nc1c(NCCC2=CCCCC2)c(=O)[nH]c(=O)n1Cc1ccccc1	inconclusive: 31.6 µM [inhibitor, partial curve]	–
CCC(CC)C(=O)NCc1ccc2c(c1)cc(C)n2C	inactive	–
CC(=O)c1ccccc1Oc1nc(CN2CCOCC2)nc2scc(-c3cccs3)c12	inconclusive: 25.1 µM [inhibitor, partial curve]	–
Cc1noc(NS(=O)(=O)c2ccc(NC(=O)COc3ccc(Cl)cc3Cl)cc2)c1C	inactive	–
N#CC1=C(N)C(C#N)(C#N)C(c2cccnc2)C2COCC=C12 (stereo not given)	inconclusive: 25.1 µM [inhibitor, partial curve]	–
Cc1cc(C)n2nc(SCC(=O)Nc3ccc(F)cc3)nc2n1	inactive	–
COc1ccccc1NC(=O)N(Cc1ccco1)Cc1cc2ccc(C)c(C)c2[nH]c1=O	–	inconclusive: -15.9% [inhibitor]
COC(=O)C1C(=O)c2c([nH]c(C(=O)OC3CCCCC3)c2C)CC1C (stereo not given)	inactive	–
